Consider 55 compounds from PubChem BioAssay AID588579 (National Center for Advancing Translational Sciences (NCATS), 2011).

Hit rate of the full screen: of about 400,000 compounds, about 2,200 (0.55%) were called active. Roughly 1% stayed inconclusive and do not appear here. The call rests on the fitted dose curve; in most records, active means well fitted inhibition curve with a large enough effect; inconclusive means small, poorly fitted or top-dose-only effect, or another doubt; inactive means no such curve, though single readings can be large or run the other way. The list shows a part of the results, in another mix than the full data. Some structures have more than one record in an assay (separate samples or runs), and their calls can disagree. Residues, ends and D or L forms follow the SMILES beside them.
On the % scale 0 is the no-effect control and ±100 the full control effect; potency means the concentration at half of the fitted maximal effect.

Sequence of UniProt Q9UBT6 (Q9UBT6 whole entry, looked up): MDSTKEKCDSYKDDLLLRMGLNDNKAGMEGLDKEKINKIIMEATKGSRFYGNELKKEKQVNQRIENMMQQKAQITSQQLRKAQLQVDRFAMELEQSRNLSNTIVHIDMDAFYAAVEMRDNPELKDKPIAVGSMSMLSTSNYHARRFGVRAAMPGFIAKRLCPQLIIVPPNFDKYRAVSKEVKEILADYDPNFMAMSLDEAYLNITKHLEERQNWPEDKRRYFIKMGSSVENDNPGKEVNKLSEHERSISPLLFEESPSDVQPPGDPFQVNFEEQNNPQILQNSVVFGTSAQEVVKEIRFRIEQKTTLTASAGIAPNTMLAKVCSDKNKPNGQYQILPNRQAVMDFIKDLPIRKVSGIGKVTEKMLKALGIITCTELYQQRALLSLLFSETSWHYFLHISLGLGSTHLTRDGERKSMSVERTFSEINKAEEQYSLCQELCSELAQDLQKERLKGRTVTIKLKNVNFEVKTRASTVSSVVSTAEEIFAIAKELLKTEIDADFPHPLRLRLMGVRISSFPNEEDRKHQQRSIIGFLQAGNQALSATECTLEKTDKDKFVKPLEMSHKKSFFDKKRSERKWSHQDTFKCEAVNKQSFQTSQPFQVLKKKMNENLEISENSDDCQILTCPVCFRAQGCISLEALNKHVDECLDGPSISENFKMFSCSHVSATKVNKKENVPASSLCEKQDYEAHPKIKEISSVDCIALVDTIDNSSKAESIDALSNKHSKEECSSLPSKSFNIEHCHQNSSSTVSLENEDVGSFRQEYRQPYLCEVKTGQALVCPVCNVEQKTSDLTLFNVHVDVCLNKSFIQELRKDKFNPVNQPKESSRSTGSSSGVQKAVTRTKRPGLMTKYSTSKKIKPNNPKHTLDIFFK

The assay deals with DNA polymerase kappa (Homo sapiens) (UniProt Q9UBT6). Put plainly: qHTS for Inhibitors of Polymerase Kappa. As to conditions: purified Pol kappa, fluorescent DNA synthesis assay, 10 min; series mostly up to 107 µM; activity, negative = inhibition: at the top concentration. In short, it runs like this:
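Enzyme at 10 nM met test compounds for 15 min at room temperature. Substrate addition (50 nM final) began the reaction, which was monitored by fluorescence at 0 and 10 min.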
(qHTS replaces the single test concentration by a dilution series.)
Consider `COc1cc2cc3c(N)c(C(=O)Nc4sc(C)c(C)c4C#N)sc3nc2cc1OC`, for which the Potency is active: 31.6 µM.

As for `O=C(N/N=C/c1cccc(F)c1)c1cc(-c2ccco2)nc2ccccc12`, the Potency is active: 17.8 µM.

With `O=C(O)C1CSC(c2ccco2)N1` (stereo not given), the Potency was active: 17.8 µM.

Turning to `O=C1C=CC2=C3c4cc(O)c(O)cc4C[C@]3(O)COC2=C1`, the Potency is active: 7.08 µM.

Consider `O=C1C(=O)C(c2cc(O)c(O)c(O)c2)Oc2cc(O)cc(O)c21` (stereo not given), for which the Potency was active: 1.26 µM.

As to H-SEIQLMHNLGKHLASVERMQWLRKKLQDVHNF-OH, the “activity, negative = inhibition” value is inactive: 17.8% [at 60.1 µM].

Consider `Cc1ccc(NC(=O)CN2C(=O)N/C(=C\c3ccco3)C2=O)cc1`, for which the “activity, negative = inhibition” value was inactive: -15%.

Consider `CCCCCc1c2c(cc(O)c1C(=O)O)OC(=O)c1c(cc(OC)cc1C(=O)CCCC)O2`, for which the “activity, negative = inhibition” value is inactive: -4.26% [at 60.1 µM].

`CCCN(CCC)CCCNC(=O)c1cc2c(=O)n(C)c3ccccc3c2n1C`: the “activity, negative = inhibition” value is inactive: 26.2%.

With `O=C(O)c1ccc2c(c1)[C@@H]1C=CC[C@@H]1[C@H](c1ccccn1)N2`, the Potency was active: 10 µM.

On to `COCCc1ccc(OC[C@H](O)CNC(C)C)cc1`, for which the activity, negative = inhibition is inactive: -7.31% [at 19.4 µM].

In the case of `Oc1cc(O)c2c(c1)O[C@H](c1ccc(O)c(O)c1)[C@@H](O)C2`, the activity, negative = inhibition was inactive: -12.2% [at 19.4 µM].

Turning to `C[C@H](/C=C/[C@@]1(O)[C@H](C)C[C@H](O)CC1(C)C)O[C@@H]1O[C@H](CO)[C@@H](O)[C@H](O)[C@H]1O`, the “activity, negative = inhibition” value was inactive: 1.09%.

Turning to `CN(C)CCCN1c2ccccc2Sc2ccc(C(F)(F)F)cc21`, the Potency result was “inactive”.

As for `O=C(COC(=O)Cc1ccc(Cl)cc1)NCc1ccco1`, the Potency was active: 79.4 µM.

`CC(=O)[C@]1(O)CCC2C3CC(C)C4=CC(=O)C=CC4(C)[C@@]3(F)C(O)C[C@]21C` (stereo not given in full): the “activity, negative = inhibition” value is inactive: -0.7% [at 60.1 µM].

For `O=C1c2c(O)cccc2Cc2cccc(O)c21`, the Potency entry was “inactive”.

Consider `N=C(N)c1ccc(N=Nc2c(O)ccc3c2[nH]c2ccccc23)cc1`, for which the Potency is active: 79.4 µM.

Turning to `OCCN1CCN(CC/C=C2/c3ccccc3Sc3ccc(C(F)(F)F)cc32)CC1`, the Potency result was “inactive”.

As to `O=C1CN(/N=C\c2ccc([N+](=O)[O-])o2)C(=O)N1`, the activity, negative = inhibition was inactive: -17.2% [at 12 µM].

For the compound `COc1cc(C(CCN2CCOCC2)c2c(OC)cc(OC)c3c2OC(=O)CC3c2ccc(N(C)C)cc2)cc(OC)c1OC` (stereo not given), the “activity, negative = inhibition” value is inactive: 11%.

As to `CC(=O)NC(CC(=O)O)C(=O)NC(CCC(=O)O)C(=O)O` (stereo not drawn) (Ac-Asp-Glu-OH; configuration not given here), the “activity, negative = inhibition” value is inactive: 0.945% [at 60.1 µM].

For the compound `CS[C@@H]1SC[C@H]2C(=O)N(C)C(C(C)C)C(=O)OC[C@@H](NC(=O)c3cnc4ccccc4n3)C(=O)N[C@@H](C)C(=O)N(C)[C@H]1C(=O)N(C)C(C(C)C)C(=O)OC[C@@H](NC(=O)c1cnc3ccccc3n1)C(=O)N[C@@H](C)C(=O)N2C` (stereo not given in full), the Potency was active: 21.2 µM.

With `COc1cc2c(Nc3ccc(NC(=O)c4ccccc4)cc3)ncnc2cc1OCCCN1CCOCC1`, the “activity, negative = inhibition” value was inactive: -5.31%.

In the case of `OC[C@@H]1[C@@H](c2ccc(Cl)cc2)C(c2ccccc2)=NN1c1ccccc1`, the “activity, negative = inhibition” value was inactive: -1.55%.

Take `Cc1cc(C)c(NC(=O)CN(c2ccccc2)S(=O)(=O)N(C)C)c(C)c1`: the “activity, negative = inhibition” value was inactive: -29.6%.

Consider `CC(=O)OCC1=C(C(=O)O)N2C(=O)C(NC(=O)COc3ccc(F)cc3)C2SC1` (stereo not given), for which the Potency was active: 22.4 µM.

As to `Oc1ccc(/C=C\c2cc(O)cc(O)c2)cc1`, the activity, negative = inhibition was inactive: -5.29% [at 12 µM].

`O=C(O)c1cc(O)c2c(c1)[C@H]([C@H]1c3cc(C(=O)O)cc(O)c3C(=O)c3c(O[C@@H]4OC(CO)C(O)C(O)C4O)cccc31)c1cccc(O[C@@H]3OC(CO)C(O)C(O)C3O)c1C2=O` (stereo not given in full): the Potency is active: 0.891 µM.

With `CC(C)CN(C(=O)COC(=O)c1cc2c(s1)CCC2)C1CCS(=O)(=O)C1` (stereo not given), the Potency is active: 39.8 µM.

Consider `O=Cc1c(Cl)cccc1Cl`, for which the Potency result is “inactive”.

For `Cc1ccc(NC(=O)CCc2c(C)nn(-c3ccc(N4CCCCC4)nn3)c2C)cc1F`, the Potency result was “inactive”.

Regarding `c1ccc2c(Nc3ccncc3)nc(-c3ccoc3)nc2c1`, the Potency is active: 28.2 µM.

On to `CCNC(=O)[C@H]1O[C@@H](n2cnc3c(N)nc(NCCc4ccc(CCC(=O)O)cc4)nc32)[C@H](O)[C@@H]1O`, for which the “activity, negative = inhibition” value is inactive: 14.1%.

For the compound `O=C(N/N=C/C=C/c1ccco1)c1cccnc1`, the “activity, negative = inhibition” value is inactive: -42.1%.

As for `CCOC(=O)c1ccc(NC(=O)CSc2ccc(-c3ccccn3)nn2)cc1`, the “activity, negative = inhibition” value was inactive: -18.4%.

Take `CC(=O)C[C@@H](O)CC(=O)[C@H]1OC(=O)CCCCCc2ccccc21`: the “activity, negative = inhibition” value was inactive: 5.77%.

For the compound `COc1ccc(NC(=O)c2ccco2)cc1NC(=O)c1c(OC)cccc1OC`, the “activity, negative = inhibition” value was inactive: -1.18%.

On to `c1ccc2c(c1)CCCC2C1=NCCN1` (stereo not given), for which the Potency result is “inactive”.

Take `O=C(Cc1cnn(-c2ccccc2)c1)c1ccc(O)c(O)c1O`: the Potency was active: 2.51 µM.

For the compound `Oc1ccc(NCc2ccc(OCc3ccccc3)cc2)cc1`, the “activity, negative = inhibition” value was inactive: -15.5%.

As to `CCCC[C@@H](C)/C=C(C)/C=C(\C)C(=O)NC1=C[C@@](O)(/C=C/C=C/C=C/C(=O)NC2=C(O)CCC2=O)[C@@H]2O[C@@H]2C1=O`, the Potency is active: 26.7 µM.

Turning to `COC(=O)[C@H]1[C@H]2CC3c4[nH]c5ccccc5c4CCN3C[C@@H]2CC[C@@H]1O` (stereo not given in full), the activity, negative = inhibition was inactive: -11.4% [at 19.4 µM].

With `Cc1cccc(C(=O)N=c2c(C#N)cc3c(=O)n4cccc(C)c4nc3n2Cc2ccco2)c1`, the Potency is active: 28.2 µM.

For `O=C(Nc1ccc2nc(-c3ccc4nc[nH]c4c3)[nH]c2c1)c1cccs1`, the Potency is active: 35.5 µM.

`O=C(CSc1ncnc2sc3c(c12)CCC3)N1CCOCC1`: the Potency was active: 79.4 µM.

`COc1ccccc1NCCC(=O)OCC(=O)NCc1ccco1`: the Potency is active: 79.4 µM.

Consider `CCN(CC)C(=O)CC(c1ccc(OC)cc1)c1c(OC)cc(OC)c2c(-c3ccccc3)cc(=O)oc12` (stereo not given), for which the Potency was active: 79.4 µM.

Regarding `COc1ccccc1[C@@H]1C(c2ccccc2)=NN(c2ccccc2)[C@H]1C(=O)N1CCOC1=O`, the “activity, negative = inhibition” value is inactive: 6.09%.

For the compound `O=C(c1ccc(C(F)(F)F)cc1)N1CCC(=O)N(C(COCc2ccc(Cl)cc2)Cc2ccccc2)CC1` (stereo not given), the “activity, negative = inhibition” value is inactive: 4.5%.

On to `CCCCCCCCCCCCCCCC[n+]1ccc(/C=C/c2c[nH]c3ccccc23)c2ccccc21`, for which the “activity, negative = inhibition” value is inactive: 95.3%.

As to `N#C/C(=C\c1ccc(O)c(O)c1)C(=O)Nc1ccccc1`, the “activity, negative = inhibition” value is inactive: 0%.

Turning to `OC[C@H]1OC(O)[C@H](O)[C@@H](O)[C@@H]1O` (stereo not given in full), the “activity, negative = inhibition” value is inactive: 19.2% [at 60.1 µM].

For the compound `O=C(O)[C@H]1CCCN1`, the Potency entry was “inactive”.

On to `O=C1NC(=O)C(c2ccccc2[N+](=O)[O-])=C1Nc1ccc(O)c(Cl)c1`, for which the “activity, negative = inhibition” value is inactive: -8.4%.
